Measured values: the supplement of paper PMC11417369
± gives the standard deviation of the averaged measurements. This is one part of the list.

Each sequence was assayed on PfAP2-EXP AP2 domain (GST-tagged) (assay: gcPBM binding intensity (ln(normalized median fluorescence intensity)); higher = stronger DNA binding).
Outline: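 Binding intensity values are the highest Masliner-normalised natural-log median intensity among replicate spots of either probe orientation. The binding step lasted 1 h in 1× PBS with 1% milk, 0.2 mg/ml BSA, 0.5% salmon testes DNA and 0.03% Triton X-100, using GST-tagged P. falciparum DNA-binding domains expressed in E. coli on an Agilent 4 × 180k array of primer-extended double-stranded 36-bp intergenic genomic probes plus negative controls. Alexa488 anti-GST antibody and a 488 nm scan detected bound protein.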

Sequence | gcPBM binding intensity (ln)
ATATAAATAAAAAAAAGTACATAATATATAAAAATA [XGTACX_site3065] | 8.72 ± 0.33
TTAAGATGCATAAATACATGCAAAGTAAATAATTCT [TGCATGCA_site517] | 8.72 ± 0.32
AATAAATATTAAATGACAAAAAAAAAAAAAAAAGGG [XGTACX_negctrl_site15] | 8.71 ± 0.2
TATAATCCATAAGAAGCACACACATATATATATATT [CACACA_site8394] | 8.6 ± 0.46
ATTATAAGAATTAAAAGAAACAAAATTTTAATTATA [CACACA_negctrl_site610] | 8.31 ± 0.46
TTAGCAGGACGTTTGGTGCACGTACTGTTTTTCTTT [GTGCAC_site9856] | 8.55 ± 0.23
TATAATAAATGGACGGTGCGACATGACCATATGTGT [GTGCAC_site9476] | 8.93 ± 0.35
TATTCCAAAAATGTGTGTACATAAATACAATATTAT [XGTACX_site2653] | 8.53 ± 0.11
AAAAAGAAGAATAATACACACAAATTATTTTATATA [CACACA_site1919] | 8.41 ± 0.37
ATAATATATATACAAACACACAATTGCGTCCACATT [CACACA_site8515] | 8.94 ± 0.31
TTGTTAATAAAAATATTGGAAAGTTTATAAAATTTT [CACACA_negctrl_site1487] | 8.1 ± 0.43
TTATTTTCTTTTTCTTGTACACACATAATATGGATG [XGTACX_site1481] | 8.75 ± 0.47
TTATTTTTTAGTAGTACACACTTTTTGTACCTTTTA [CACACA_site4503] | 8.69 ± 0.3
CTTACCAAAAAACACACACACACAAAATATATAAAT [CACACA_site1870] | 8.85 ± 0.59
GACACCCATAAATATACACACGCACAACACAAAATA [CACACA_site8944] | 8.76 ± 0.47
CTAAAAGAACATGTGTGTACTTATGTTCTCTTTTTT [XGTACX_site5983] | 8.35 ± 0.47
AATAAAAAAAAAAAAAAAAAAAAAAAGACACTAAAA [CACACA_negctrl_site1075] | 8.18 ± 0.6
ATTTTTTTTATGTATTATGCTTTTATATCCTTCATA [CACACA_negctrl_site1244] | 9.01 ± 0.5
AAAGAATTTGCATATACACACAAAAAAATAAATACA [CACACA_site4373] | 8.49 ± 0.2
ATTTCTTTTACATTTACATGCAATGCTCTATAGATA [TGCATGCA_site62] | 9.23 ± 0.44
ATATATATATACATATGTACATATATATTTATACAT [XGTACX_site2463] | 9.64 ± 0.33
TACACAGACGGACACACACACACACTAGAAAAAAAA [CACACA_site4435] | 8.49 ± 0.37
AATGCACTATTTAAAAGTACACATAAGAAAAGCATA [XGTACX_site1739] | 9.2 ± 0.37

Sequence | gcPBM binding intensity (ln)
GCTAAACAATAGTTTGCACACAATTTAAATATATAT [CACACA_site193] | 8.46 ± 0.25
AATATAATATAATGCACACATAAAAAAAAAAAAATC [CACACA_site1303] | 8.7 ± 0.32
TTATATACATTAAATGAACACACATAAATAAATTAC [CACACA_site8927] | 8.67 ± 0.38
AGTATAAATATATTATGTACATATATATTATACTTA [XGTACX_site2623] | 8.38 ± 0.14
ATTATAGACAACTCTTTTTCTAAACTATTTTATTTT [CACACA_negctrl_site1754] | 8.73 ± 0.31
CATAATATTTGTGAAAGTACTTATTTTACAATAGGG [XGTACX_site5004] | 8.84 ± 0.69
AAAAAAAAAAAAAACACACACACACGCAGATATATA [CACACA_site6672] | 8.78 ± 0.64
TTTATTCTCCACACCCGTACACATTTTTTTTGCATA [XGTACX_site5615] | 9.29 ± 0.47
TTTCTTAAAATATAAAGTACTAAAATGAAAATATAT [XGTACX_site2173] | 8.66 ± 0.49
AAATAAAGAAATATATGTACATATATATATATATAT [XGTACX_site5131] | 10.4 ± 0.28
ATAAATAAATAAATAAATATATATATGAAATAATGT [TGCATGCA_negctrl_site12] | 8.7 ± 0.42
TTTTCTATAAGATTTGCACACAACTTATTCTATTAA [CACACA_site3752] | 8.63 ± 0.27
CTTCTTTTGTGATAAAGTACAAATATTTTGAAATAT [XGTACX_site1156] | 8.51 ± 0.3
AAAAAATATAAAACGAGTACATATATAATAAGCAAA [XGTACX_site1360] | 9.01 ± 0.33
TAAATTATAACGTGCACACATATTTAAAATGAAATG [CACACA_site2820] | 9.4 ± 0.61
TGTTGTTACAGATATACACACATATATATATTATAT [CACACA_site5342] | 8.55 ± 0.41
TTGGGTGCATATATTTGTACACATTATTTCTATTTT [XGTACX_site3688] | 9.64 ± 1.4
ATAAACATGGAAATGTATTAAAAGCAAGTATATAAA [XGTACX_negctrl_site516] | 8.87 ± 0.3
AAAAAAAATTTCTTCACACATAAATAAATAAATAAA [CACACA_site4841] | 8.55 ± 0.26
TGCATTTATATCTTCACACATATATATATATATATA [CACACA_site4516] | 10.2 ± 0.42
ATATGTATATATACATGTACATATTTTTCCTTTCTT [XGTACX_site149] | 8.55 ± 0.44
ATGTAATAAAATAATTGTACAATGTAACTAATTTTT [XGTACX_site2871] | 8.55 ± 0.28
ATTAAAAATTCAATTGCACACGCACATATTTTAATA [CACACA_site8618] | 8.45 ± 0.21

Sequence | gcPBM binding intensity (ln)
TATATATATATATATACACACACACCCATATATATA [CACACA_site8812] | 10.3 ± 0.3
ACATAAATAAATTAATGTACATATATATTTGTATAT [XGTACX_site3160] | 8.36 ± 0.28
TTTTTTTTTTTTTCAAGTACATATATATATATATAA [XGTACX_site2098] | 8.44 ± 0.45
TTTTTATATGTTAAGTGTACGTTTACATTTTATACT [XGTACX_site3485] | 8.63 ± 0.36
TATTATGTATGTATATGTACGTATCTTATTTTATTT [XGTACX_site5008] | 8.52 ± 0.47
TTTTTTGTATTTTTCACACACACATAAGTAAACAAT [CACACA_site1900] | 8.74 ± 0.46
TATACATACATTAGACGTACACATTTTACCTACACC [XGTACX_site3586] | 8.84 ± 0.46
AAATTATTATATATATGTACGTATAATGTATTTTGT [XGTACX_site2903] | 8.4 ± 0.35
AAATATAGAATACATGTGCACATAATATATATATAT | 9.82 ± 0.29
TTTGTATCTATATATTGTACGAATTACTTTCATTTA [XGTACX_site4785] | 8.62 ± 0.33
TCTTTTTAAGGGATTTTTTTTTTTTTTTTAAAAAGA [CACACA_negctrl_site1274] | 8.07 ± 0.53
AATACAATTTATAACACACACACAAGAATACCTATA [CACACA_site6705] | 8.81 ± 0.46
AAAAAAAAAAAAATATATATATATATATATATATAT [GTGCAC_negctrl_site212] | 10.1 ± 0.24
AAATGTAAATTTATCCGTACATATATATATTTATAT [XGTACX_site7024] | 8.47 ± 0.38
AAAAAAAAAAATTAAAGTACAAAAATATTAAAAATA [XGTACX_site6517] | 8.38 ± 0.38
TCTGTTAAACAAAAAAGTACTAAAATAATGTAAAAT [XGTACX_site6826] | 8.85 ± 0.45
TTAACAAAACATAAGGTGCTTAAAATTTTATATCAC [GTGCAC_site9839] | 8.62 ± 0.11
ATTATTATATATGTATGTACTTATATAATATATATA [XGTACX_site5198] | 8.29 ± 0.2
TATATATTGTTATATACACACATGTATTTAAAAAAT [CACACA_site5737] | 8.29 ± 0.35
ATATGTACAAGTGTTTATGCTGAACGGAAATCCTGT [CACACA_negctrl_site1372] | 8.47 ± 0.45
TACCTATATAGACACACACACATATATTTATTTATA [CACACA_site6728] | 8.58 ± 0.37
ATGTATTAAAATTTATGTACTTATATATAAATATAT [XGTACX_site1025] | 8.3 ± 0.3
TATATGTATTTGTATACACACAAATGTATATATTTA [CACACA_site1265] | 8.21 ± 0.49

Sequence | gcPBM binding intensity (ln)
CATACCTTTTAATGTACACACATTTCTTTTTTGTTA [CACACA_site892] | 8.88 ± 0.28
AAAAAAAAAAGAAACACACACATATATATATAGAAT [CACACA_site1777] | 8.73 ± 0.59
AATATATATACTATAACACACATACACCCAAAAAAA [CACACA_site4453] | 8.96 ± 0.47
TTATATGGATATACAGTGCATATATACATATAAGTG | 8.61 ± 0.26
TATAAACATAATATTTAACACACATGAAGATGTATA [CACACA_site8252] | 8.24 ± 0.47
TACATATATTATACATGTACACATTTATACATATCG [XGTACX_site2866] | 8.65 ± 0.32
ATATGATCATACTGTGCATGTTAATGCAAATTTTAT [TGCATGCA_site984] | 8.75 ± 0.37
TTCTCCTAATAGTTAGTGCACTACATAACTAAGAAA | 9.38 ± 0.78
ATAATTGTCCATTTTTTCTTTTTTTTTTTCTTTTTA [CACACA_negctrl_site928] | 8.52 ± 0.51
TTTTTTTTTATATAAAAAAAAATTTTTATTATTTTA [GTGCAC_negctrl_site347] | 8.21 ± 0.39
CGCACAGACGGACACACACACACATATATATATATA [CACACA_site5249] | 10.1 ± 0.4
AAAAAAAAAAAAAAAACACACATTTAGCAATCTACA [CACACA_site3706] | 8.67 ± 0.18
ATGATACTAAAAAATTGTACATATAACAAAAGGTAT [XGTACX_site2527] | 8.88 ± 0.3
CATATATTTTGAAACACACACATATATAATATACAT [CACACA_site1158] | 8.59 ± 0.35
TTATCATTATATAGTTGTACATATTTATTTATAAAA [XGTACX_site2310] | 8.46 ± 0.53
TTTGTATAATACATGTGTACGTATTTTTATATAAAT [XGTACX_site8656] | 8.72 ± 0.34
AGAACTAAAAGAACATGTACATAAATTCTAAATAAT [XGTACX_site4084] | 8.55 ± 0.44
TATTTTGTTTTAAAAGTACACACTTTTAATTAGATT [CACACA_site1180] | 8.46 ± 0.22
ATAACAAAATGAAGAGTGCATTACCAAGTGGGTAAA [GTGCAC_site9450] | 8.93 ± 0.22
TTAATTTGTTCTTACACACACATATAAATATATTTA [CACACA_site6676] | 8.71 ± 0.33
